# In paper PMC4336329 (PLoS ONE, 2015):
# Screen size: about 310,000 compounds; about 2,200 (0.71%) showed an effect of 50% or more. The effect is printed as a negative number. Some of the results follow.
# Target: human ether-à-go-go-related gene (hERG) potassium channel (human, UniProt Q12809)
# Experiment: primary screen, population patch clamp on CHO cells stably expressing hERG
# human ether-à-go-go-related gene (hERG) potassium channel, sequence (Q12809 whole entry, looked up): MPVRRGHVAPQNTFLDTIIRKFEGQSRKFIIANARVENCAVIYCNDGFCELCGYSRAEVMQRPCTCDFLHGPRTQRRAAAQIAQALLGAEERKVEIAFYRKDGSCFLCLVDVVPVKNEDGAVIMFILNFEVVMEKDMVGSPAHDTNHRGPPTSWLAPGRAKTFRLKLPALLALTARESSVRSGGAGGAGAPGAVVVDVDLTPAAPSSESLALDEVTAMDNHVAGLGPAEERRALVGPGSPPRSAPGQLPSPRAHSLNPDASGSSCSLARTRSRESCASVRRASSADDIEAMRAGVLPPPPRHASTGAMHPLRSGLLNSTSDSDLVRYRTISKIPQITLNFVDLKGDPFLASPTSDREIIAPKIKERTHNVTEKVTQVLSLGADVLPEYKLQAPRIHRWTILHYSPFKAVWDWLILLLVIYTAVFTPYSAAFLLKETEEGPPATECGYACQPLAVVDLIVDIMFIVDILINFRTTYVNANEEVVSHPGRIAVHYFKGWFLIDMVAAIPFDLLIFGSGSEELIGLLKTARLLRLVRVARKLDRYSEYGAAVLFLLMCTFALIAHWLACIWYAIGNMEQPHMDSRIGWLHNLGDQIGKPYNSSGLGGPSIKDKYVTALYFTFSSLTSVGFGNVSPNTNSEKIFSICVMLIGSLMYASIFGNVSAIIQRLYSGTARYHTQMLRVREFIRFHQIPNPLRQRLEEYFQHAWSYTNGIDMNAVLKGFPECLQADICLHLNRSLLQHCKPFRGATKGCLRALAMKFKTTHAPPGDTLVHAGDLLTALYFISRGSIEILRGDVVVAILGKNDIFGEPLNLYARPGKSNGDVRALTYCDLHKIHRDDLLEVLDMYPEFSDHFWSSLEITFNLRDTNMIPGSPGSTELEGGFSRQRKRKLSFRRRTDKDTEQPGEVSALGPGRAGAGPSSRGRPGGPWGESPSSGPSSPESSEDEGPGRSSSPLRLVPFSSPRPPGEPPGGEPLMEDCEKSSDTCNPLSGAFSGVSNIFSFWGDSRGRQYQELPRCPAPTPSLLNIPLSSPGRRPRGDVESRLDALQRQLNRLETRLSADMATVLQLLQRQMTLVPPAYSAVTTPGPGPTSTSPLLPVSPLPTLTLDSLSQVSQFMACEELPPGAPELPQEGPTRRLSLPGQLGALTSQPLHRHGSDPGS
row,Structure (SMILES),"hERG current change (%, negative = inhibition) at 1uM [%]"
1,CCOC(=O)c1ccc(-c2c(C(=O)OCC)oc3cc(O)c(CC)cc3c2=O)o1,1.44
2,C=CCN=c1scc(-c2ccccc2)n1/N=C/c1ccccn1,8.91
3,Cc1noc(C(=O)Nc2ccc(Cl)cc2)c1Cl,13
4,CCOC(=O)C1=C(NC(=S)NC(=O)c2ccccc2)c2ccccc2CC1C(C)C (centres unmarked),17.9
5,Cc1ccc(-c2nnc(SCCC(=O)N3CCOCC3)o2)cc1,14.7
6,COc1cc(/C=N/NC(=O)c2ccc(=O)[nH]n2)ccc1O,2.75
7,O=C(COc1ccc(Cl)cc1)NC1CCSC1=O (centres unmarked),4.51
8,CCCCc1nc(NCCN2CCOCC2)c(C#N)c2c1COC(C)(C)C2,2.05
9,O=C(Nc1ccccc1)c1cccc(N2C(=O)C3C4CC(C(Br)C4Br)C3C2=O)c1 (centres unmarked),12.6
10,O=CN1CCN(S(=O)(=O)c2ccc(S(=O)(=O)NC3CCCCC3)cc2)CC1,4.77
11,Cc1ccc(NC(=O)CN(c2ccc(Cl)cc2)S(=O)(=O)c2cc([N+](=O)[O-])ccc2Cl)c(C)c1,9.92
12,Cc1cc(/C=C(\C#N)C(=O)Nc2ccccc2)c(C)n1-c1ccc(C(=O)O)cc1,-3.25
13,O=C(O)COc1c(Cl)cc(/C=C2/NC(=O)NC2=O)cc1Br,9.64
14,CCn1cc(S(=O)(=O)N2CCN(Cc3ccc(F)cc3)CC2)cn1,10.6
15,N#C/C(=N\Nc1ccc(F)cc1)C(=N)N1CCCCC1,-3.77
16,CC(C)(C)C(=O)O/N=C(\N)COc1cccc(Cl)c1,15.3
17,O=C(COC(=O)c1ccccc1Br)NCCc1ccc(F)cc1,7.64
18,C/C(=N/NC(=O)c1ccoc1C)c1ccc(NC(=O)C2CCCC2)cc1,13.5
19,Cc1ccnc(N=Cc2nc(-c3ccccc3Br)oc2O)c1,6.12
20,CCOC(=O)c1c(C)n(-c2ccc(C)cc2)c2ccc(OCC(O)CNCC3CCCO3)cc12.O=C(O)C(=O)O (centres unmarked),-0.393
21,Cc1ccc(S(=O)(=O)NC(CC(C)C)C(=O)N2CCN(C/C=C/c3ccccc3)CC2)cc1 (centres unmarked),12.4
22,COc1ccccc1OCC(=O)NCCNC(=O)COc1ccccc1OC,7.38
23,N#CCC(CNc1ncc(C(F)(F)F)cc1Cl)OC(=O)c1c(F)cccc1F (centres unmarked),11.6

row,Structure (SMILES),"hERG current change (%, negative = inhibition) at 1uM [%]"
1,Cc1cccc(CNc2ccc(C(CC(N)=O)NC(=O)c3ccccc3)cc2[N+](=O)[O-])c1 (centres unmarked),5.97
2,Cc1ccc(NC(=O)CCC(=O)NNS(=O)(=O)c2ccccc2)c(C)c1,12.3
3,CCc1ccc2[nH]c(=O)c(C3C(C#N)=C(N)Oc4c3ccc3cccnc43)cc2c1 (centres unmarked),3.55
4,CC(=O)c1ccc(NC(=S)N(C)C2CCN(C)CC2)cc1,2.29
5,CCN(CC)Cc1cc2ccccc2c2c1COC2,-21.5
6,O=C1NC(=O)C(CCc2ccccn2)(Cc2ccc3c(c2)OCO3)C(=O)N1CCc1ccccc1 (centres unmarked),6.21
7,CCNC1CCS(=O)(=O)C1 (centres unmarked),13.2
8,Cc1ccc(NC(=O)c2ccc(Cl)cc2Cl)cc1O,5.61
9,CCCC(=O)Nc1ccc2c(c1)nc1n2CCN(CCOC)C1,10.5
10,COc1ccc(/C=N/NC(=O)c2ccc(=O)[nH]n2)cc1OC,13
11,CNC(=O)CSc1cnc2ccccc2n1,2.19
12,CC(=O)N1CCN(S(=O)(=O)c2cccc(C(=O)NC3CCCC3)c2)CC1,6.03
13,CC1=CC2/C=C(\C)CCC(O)C(O)/C=C/C(=O)C23C(=O)NC(CC(C)C)C3C1C (centres unmarked),12.7
14,CC1CCN(C(=O)CCS(=O)(=O)c2cc3c(cc2Cl)NC(=O)CO3)CC1,-16.3
15,Cc1ccc(C)c(COC(=O)c2cc([N+](=O)[O-])ccc2N2CCOCC2)c1,9.39
16,CCCNC(=O)CSCc1nc(-c2ccc(SC)cc2)oc1C,12.9
17,CCCN[C@@H]1C(=O)N2C(C(=O)OCCC)=C(C)CS[C@H]12,7.14
18,COc1ccc(OCCn2cc(/C=C(\C#N)C(=O)NCc3ccco3)c3ccccc32)cc1,15.5
19,Cc1ccc(C)c(NC(=O)COC(=O)CCc2ccc(S(=O)(=O)N3CCOCC3)cc2)c1,6.79
20,COCCCn1c(=O)c2ccccc2c2ccccc2c1=O,6.29
21,Cc1ccc(S(=O)(=O)N2CCCCCC2)cc1[N+](=O)[O-],8.47
22,Cc1ccc(OCC(=O)NC(=S)Nc2ccc(Br)c(C)n2)cc1,5.89
23,CCOC(=O)C1C(c2ccc(O)cc2)NC(=O)NC1(O)C(F)(F)F (centres unmarked),6.45

row,Structure (SMILES),"hERG current change (%, negative = inhibition) at 1uM [%]"
1,Cc1cc(C)n2nc(CNS(=O)(=O)c3ccc(F)cc3)nc2n1,14
2,O=C(O)c1ccc(/C=N/NC(=O)C2CC2(c2ccccc2)c2ccccc2)cc1 (centres unmarked),15.3
3,CC(C)C(c1nnnn1C1CCCC1)N1CCc2ccccc21 (centres unmarked),7.72
4,COc1ccc(C(NC(=O)c2ccco2)c2ccc(OC)c(OC)c2)cc1 (centres unmarked),11.1
5,Cn1c(O)c(/C=C2\C=c3ccccc3=NC2=O)c(=O)n(C)c1=O,10.3
6,COc1cccc2[nH]c3c(N4CCC(C)CC4)ncnc3c12,-2.29
7,C=CCn1c(SCC(=O)c2ccc(Cl)s2)nc2ccccc2c1=O,12.7
8,CC1Cc2ccccc2N1C(=O)COC(=O)c1cccc(Br)c1 (centres unmarked),12.6
9,CC(C)(C)c1ccccc1OCC(=O)NCCC(=O)O,4.06
10,Cc1ccc(NC(=S)NN2CCN(C)CC2)cc1,8.77
11,CN(C)CCCC1(O)c2ccccc2CCc2ccccc21,8.53
12,O=C(CN(CC1CCCO1)C(=O)CNS(=O)(=O)c1ccc(Cl)cc1)NCC1CCCO1 (centres unmarked),12.5
13,CC(=O)N1CCN(Cc2nc3cc(NC(=O)c4ccc(F)cc4)ccc3n2C)CC1,4.31
14,CN(C)S(=O)(=O)c1ccc(C(=O)Nc2nc(-c3ccccc3)c(C(=O)c3ccccc3)s2)cc1,7.28
15,COc1ccc(CCNC(=O)C(=O)N2CCCCC2)cc1OC,14.3
16,CCn1c(SCC(=O)Nc2ccc(-c3nc4ccc(C)cc4s3)cc2)nnc1-c1ccccc1,8.51
17,Cc1cccc(CNCc2ccccc2)c1.Cl,-0.918
18,C(=N\Nc1nc(-c2cccnc2)nc2ccccc12)/c1ccccc1,15.3
19,CC(=O)c1cccc(S(=O)(=O)NCC(c2ccco2)N2CCCCC2)c1 (centres unmarked),-0.501
20,COc1ccc(CC(=O)Nc2ccc(-c3noc(COc4ccccc4C)n3)cc2)cc1,7.17
21,COc1ccccc1NC(=O)COC(=O)c1cnc(C)cn1,14.8
22,Cc1cc(C)cc(-c2nnc(SCC(=O)NCc3cccs3)o2)c1,10.2
23,Cc1ccc(C)c(Cn2c3ccccc3c3cnn(CC(=O)NCCCN4CCCCC4)c(=O)c32)c1,-44.3

row,Structure (SMILES),"hERG current change (%, negative = inhibition) at 1uM [%]"
1,CCOc1cc(C(=O)OC(C)C(=O)Nc2ncc(Cl)cc2Cl)ccc1OCC(=O)N1CCOCC1 (centres unmarked),8.54
2,O=C(CSc1ccc(-c2cccnc2)nn1)Nc1ccc(Br)cc1,-3.94
3,FCCN(CCF)c1cccc(Cl)c1,11.2
4,Cn1cc(Br)c(C(=O)N2CCc3ccccc32)n1,2.4
5,CC(C)=NNc1nc(-c2ccccc2)c(C)s1,9.91
6,CC1CCN(C(=O)c2[nH]cnc2C(=O)NCC(=O)OC(C)(C)C)CC1,12.5
7,C=CCN1C(=O)CN=C1Nc1ccc(F)cc1,8.84
8,CC1=NN(C(=O)COc2ccccc2)C(O)(c2cccnc2)C1 (centres unmarked),13.6
9,CCCn1c(N)c(C(=O)CN2CCN(S(=O)(=O)c3cccs3)CC2)c(=O)[nH]c1=O,6.26
10,Cc1ccc(CN2CCN(Cc3ccc(O)cc3)CC2CCO)o1 (centres unmarked),3.81
11,CCSc1nnc(NC(=O)c2cccc(S(=O)(=O)N(C)c3ccccc3)c2)s1,1.55
12,Cc1ccc(CCNC(=O)CCS(=O)(=O)c2ccc3c(c2)oc(=O)n3C)cc1,2
13,COc1ccc(N2CC(C(=O)Nc3nc4ccccc4s3)CC2=O)cc1 (centres unmarked),7.18
14,COc1ccc(Cl)cc1NC(=O)C/C(C)=N/NC(=O)CCc1ccccc1,4.46
15,CC(C)(C)c1ccc(OCCC(=O)NNC(=O)c2ccncc2)cc1,-0.888
16,Cc1nnc(NC(=O)c2ccc(-c3ccc(Cl)cc3)o2)s1,6.31
17,CC1CCCC(C)N1C(=O)CSc1nnc(-c2c[nH]c3ccccc23)o1 (centres unmarked),2.01
18,O=C1CCC(C(=O)N2CCOCC2)CN1Cc1ccc(Cl)cc1 (centres unmarked),8.34
19,COc1cc(C(=O)OCC(=O)NC2CCCCC2)cc2c1OCCO2,9.84
20,CCC(OC(=O)CN1C(=O)C(=O)c2ccccc21)C(=O)Nc1ccc(S(N)(=O)=O)cc1 (centres unmarked),9.97
